# Experimental data: PubChem BioAssay AID588855 (National Center for Advancing Translational Sciences (NCATS), 2011)
# Among all 410,000 compounds or so, about 5,000 (1.2%) were called active. The shares of active, inactive and inconclusive entries below differ from those in the screen. Calls come from the whole dose curve; as a rule, active = well fitted inhibition curve with a large enough effect; inconclusive = small, poorly fitted or top-dose-only effect; inactive = no such curve, though single readings can be large or run the other way. A potency beside an inconclusive call is a rough fit, not a confirmed value.
# Assay: qHTS for Inhibitors of TGF-b; note: nearly all actives have a fitted effect of over 65% in size
# Conditions: HepG2 CAGA-GFP TGF-b/SMAD3 reporter, GFP fluorescence, 18 h, TGF-beta stimulated, 500 pg/mL final; series mostly up to 46.1 µM; activity, negative = inhibition: at the top concentration
# Outline: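 Cell-based qHTS in HEPG2 carrying a CAGA-GFP Smad reporter; compounds added before 500 pg/mL final TGF-beta, 18 h incubation at 37 degrees C, GFP fluorescence quantified per cell by imaging cytometry.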
# % is set by controls: 0 for no effect and ±100 for the full control effect; potency is the fitted concentration of half-maximal effect; tags give direction and shape of the fitted curve.
SMILES,Potency,"activity, negative = inhibition"
O=c1[nH]c2ccc(Cl)cc2c(O)c1Cc1ccccc1,"inconclusive: 6.31 µM [inhibitor, single point]",
CCOc1ccc(S(=O)(=O)Nc2ccc3oc4c(c3c2)CC(C)CC4)cc1 (stereo unspecified),"inconclusive: 31.6 µM [inhibitor, single point]",
O=C(Nc1ccc2c(c1)OCO2)c1ccc(Br)c(S(=O)(=O)N2CCCC2)c1,"inconclusive: 35.5 µM [inhibitor, partial curve, poor fit]",
O=C(Nc1ccc(C(O)(C(F)(F)F)C(F)(F)F)cc1)c1ccc(Cl)c([N+](=O)[O-])c1,"inconclusive: 25.1 µM [inhibitor, single point]",
COc1ccc(/C=C(\C#N)c2nc3ccccc3c(=O)[nH]2)cc1OC,,inactive: -11.3%
CCOC(=O)C1CCCN(C(=O)/C=C/c2cc(OC)c(OC)c(OC)c2)C1 (stereo unspecified),"inconclusive: 6.31 µM [inhibitor, single point]",
Clc1ccc2c(SCC3CO3)c3ccccc3nc2c1 (stereo unspecified),active: 7.94 µM,
COc1cccc(/C=C(/C(=O)OCC(=O)NC2CCCCCCC2)c2ccccc2)c1,"inconclusive: 25.1 µM [inhibitor, single point]",
Cc1ccccc1NC(=O)/C=C/c1ccc([N+](=O)[O-])s1,active: 7.08 µM,
O=C1CC2(CCCCC2)Oc2ccc(O)cc21,"inconclusive: 12.6 µM [inhibitor, single point]",
CCC(C)[C@H]1CN=C(N)N1CCc1cccc2ccccc12 (stereo partly specified),"inconclusive: 35.5 µM [inhibitor, single point]",
CCOC(=O)Cc1csc(NS(=O)(=O)c2ccc3c4c(cccc24)C(=O)N3CC)n1,"inconclusive: 35.5 µM [inhibitor, single point]",
CC(=O)C1=CCC(c2ccccc2Cl)N(S(=O)(=O)c2ccc(C)cc2)C1 (stereo unspecified),"inconclusive: 12.6 µM [inhibitor, single point]",
Cc1cc2c(OCC(O)CNC(C)(C)C)cccc2[nH]1 (stereo unspecified),"inconclusive: 1.58 µM [inhibitor, full curve, poor fit]",
COc1ccc(Nc2ncnc3c2cnn3Cc2ccccc2)cc1,,inactive: -8.72%
CN(C)CCNC(=O)c1ccc(-c2cn3c(-c4ccc(Oc5ccccc5)cc4)cnc3cn2)cc1,active: 11.2 µM,
Cc1cc(OC(=O)c2ccc(C)c(C)c2)c([N+](=O)[O-])c(=O)[nH]1,,inactive: 3.19%
O=C(c1cccc(COCC(F)(F)C(F)F)c1)N1CCN(c2ccccc2)CC1,"inconclusive: 0.316 µM [inhibitor, full curve, poor fit]",
CCOc1ccc(C(=O)Nc2ccc3c(c2)CCCN3S(=O)(=O)c2ccc(C)cc2)cc1,"inconclusive: 1.41 µM [inhibitor, full curve]",
CC1=C(C(=O)OCc2ccc(C)cc2)C(c2ccccc2C(F)(F)F)CC(=O)N1 (stereo unspecified),"inconclusive: 7.08 µM [inhibitor, partial curve, poor fit]",
OC(c1ccc(F)cc1)c1ncc(-c2ccc(Oc3ccccc3)cc2)[nH]1 (stereo unspecified),"inconclusive: 22.4 µM [inhibitor, single point]",
O=C(CNC1CCCCCC1)Nc1ccccc1N1CCCCC1,"inconclusive: 35.5 µM [inhibitor, partial curve, poor fit]",

SMILES,Potency,"activity, negative = inhibition"
CC1(NC(=O)Cc2ccc(Cl)c(Cl)c2)CCS(=O)(=O)C1 (stereo unspecified),,inactive: 8.61%
COc1ccccc1NC(=O)CC1Sc2ccc(C(F)(F)F)cc2NC1=O (stereo unspecified),"inconclusive: 7.08 µM [inhibitor, partial curve]",
CN(C)c1ccc(CN(C(=O)/C=C/c2ccccc2Cl)C2CCS(=O)(=O)C2)cc1 (stereo unspecified),"inconclusive: 17.8 µM [inhibitor, single point]",
COc1ccc(C(CCN2CCOCC2)c2c(OC)cc(OC)c3c2OC(=O)CC3c2ccc(OC)cc2)cc1 (stereo unspecified),"inconclusive: 7.08 µM [inhibitor, partial curve]",
O=C(CSc1nc(Cc2ccccc2)nc2ccccc12)c1ccc2c(c1)OCCO2,,inactive: 2.61%
COc1ccccc1N1CCN(C(=O)Cn2ncc3c2-c2cc(C)ccc2OC3)CC1,,inactive: -19.6%
Cc1ccc(NC(=O)CSc2nnc(-c3cccnc3)s2)cc1,,inactive: 0.823%
O=C(c1ccccc1)c1nn(-c2cccc(Cl)c2)c2nc(-c3ccccc3)cc(=O)n12,,inactive: -9.5%
O=C(Nc1cccc(-n2cccn2)c1)C1CCCN(Cc2cc3ccccc3[nH]2)C1 (stereo unspecified),"inconclusive: 35.5 µM [inhibitor, single point]",
CCN(CC(=O)Nc1ccc(NC(C)=O)cc1)C(=O)c1ccccc1SCC(=O)N1CCCC1,,inactive: 1.23%
COCCN1CCc2nc(SCC(=O)Nc3ccc(C)c(Cl)c3)[nH]c(=O)c2C1,,inactive: -22%
COC(=O)C1CCN(C(=O)/C=C/c2ccc3c(c2)OCO3)CC1,,inactive: -15.5%
O=C(COC(=O)Cc1ccccc1F)Nc1cc(S(=O)(=O)N2CCOCC2)ccc1N1CCCC1,,inactive: -13.8%
CCn1nnnc1SCC(=O)Nc1sc(C)c(C)c1C#N,"inconclusive: 35.5 µM [inhibitor, single point]",
CC(C)n1ncc2c(C(=O)O)cc(C3CC3)nc21,,inactive: 2.19%
Nc1cc(Cl)ccc1Oc1ccc2ccccc2c1,"inconclusive: 8.91 µM [inhibitor, partial curve]",
O=C1CC(c2ccc(OCCCCCOc3ccc(C4CC(=O)NC4=O)cc3)cc2)C(=O)N1 (stereo unspecified),"inconclusive: 35.5 µM [inhibitor, single point]",
CCN(CC)S(=O)(=O)c1cccc(C(=O)OCC(=O)NCc2ccccc2OC)c1,"inconclusive: 2.51 µM [inhibitor, full curve, poor fit]",
CC1=C(C(=O)NCc2cccc(F)c2)C2(CCCCCC2)OC1=O,"inconclusive: 35.5 µM [inhibitor, single point]",
N#Cc1ccc(C(=O)OCC(=O)N2CCOCC2)cc1,"inconclusive: 0.708 µM [inhibitor, full curve, poor fit]",
COc1ccc(C)cc1NC(=O)c1cc(S(=O)(=O)N2CCC(C)CC2)ccc1F,,inactive: -12.4%
CS(=O)(=O)c1ccccc1-c1nc(-c2ccc(C(F)(F)F)cc2)no1,"inconclusive: 35.5 µM [inhibitor, single point]",

SMILES,Potency,"activity, negative = inhibition"
CC(C)C1C(=O)N(Cc2cn(CCC3OCCCO3)nn2)CCS(=O)(=O)N1Cc1ccc(-c2ccc(Cl)c(Cl)c2)cc1 (stereo unspecified),"inconclusive: 35.5 µM [inhibitor, single point]",
COc1cc(C2NC(=O)NC(c3ccccc3)=C2C(C)=O)c(Br)c(Br)c1O (stereo unspecified),"inconclusive: 6.31 µM [inhibitor, single point]",
CCOC(=O)c1cc(C)n(CC2CCC(C(=O)Nc3ccc(OC)cc3)CC2)c1C (stereo unspecified),"inconclusive: 11.2 µM [inhibitor, partial curve, poor fit]",
Cc1ccc(CN2C(=O)C(CC(C)C)Nc3ncnc(N4CCOCC4)c32)cc1 (stereo unspecified),"inconclusive: 1.58 µM [inhibitor, full curve]",
Fc1ccc(-c2cc3ncc4c(n3n2)-c2cc(Cl)ccc2OC4)cc1,,inactive: 0.319%
CN(C)C(=O)c1ccc(NC(=O)c2ccccc2Sc2ccccc2C#N)cc1,,inactive: -4.8%
COc1ccccc1/C=C/C1(C(=O)NC2CCCC2)CC(=O)N1c1ccccc1 (stereo unspecified),"inconclusive: 14.1 µM [inhibitor, partial curve, poor fit]",
Cc1[nH]nc(-c2ccc(O)cc2O)c1-c1ccc(Cl)cc1,"inconclusive: 35.5 µM [inhibitor, single point]",
Cc1nc(Cl)c2c(n1)NC(=O)CO2,,inactive: 1.03%
CCOC(=O)C1CCN(C(=O)COc2ccc(S(=O)(=O)NC(C)C)cc2Cl)CC1,"inconclusive: 1.78 µM [inhibitor, partial curve, poor fit]",
N#CC1=C2SC=C(c3ccc(Br)cc3)N2CCCC1=O,"inconclusive: 35.5 µM [inhibitor, single point]",
CC(=O)Nc1cccc(-c2ccnc3c2CC(C)(C(=O)Nc2cccc(C(F)(F)F)c2)O3)c1 (stereo unspecified),"inconclusive: 17.8 µM [inhibitor, single point]",
O=C(CSc1nc2ccccc2n1CCc1ccccc1)NC1CCS(=O)(=O)C1 (stereo unspecified),"inconclusive: 5.62 µM [inhibitor, single point]",
CCOC(=O)CSc1nc2ccc(NC(=O)c3ccc(Cl)cc3)cc2s1,"inconclusive: 35.5 µM [inhibitor, partial curve, poor fit]",
Nc1c(C(=O)Nc2cccc(F)c2)nnn1-c1ccc2c(c1)OCCO2,"inconclusive: 35.5 µM [inhibitor, single point]",
Nc1cccn2c(-c3ccc(Cl)c(Cl)c3)cnc12,"inconclusive: 10 µM [inhibitor, partial curve]",
COc1ccccc1-c1cn[nH]c1-c1ccc(OCc2ccccc2F)cc1O,"inconclusive: 17.8 µM [inhibitor, single point]",
Cc1cc(C2=CC(=O)C[C@H](c3ccc4c(c3)OCO4)C2)ccc1F,"inconclusive: 7.08 µM [inhibitor, full curve, poor fit]",
COc1ccc(O)c(C(=O)c2cnc3nc4ccccc4n3c2)c1,,inactive: 4.99%
COc1cccc(-c2nc(CS(=O)(=O)CC(=O)Nc3cccc(C(C)=O)c3)c(C)o2)c1,"inconclusive: 8.91 µM [inhibitor, partial curve, poor fit]",
CCOc1ccc(OCc2ccc(C(=O)N(CC)CC)cc2)cc1,"inconclusive: 10 µM [inhibitor, partial curve, poor fit]",
O=C1C2C3C=CC(c4ccccc4)(C2C(=O)N1c1cccc(Cl)c1)C1C(=O)N(c2cccc(Cl)c2)C(=O)C31 (stereo unspecified),"inconclusive: 35.5 µM [inhibitor, partial curve, poor fit]",
